Consider 111 compounds from PubChem BioAssay AID488969 (Vanderbilt High Throughput Screening Facility, 2010).

Whole data set: some 110,000 compounds, median “z-score” near -0.1, cut for the highest 2% near 2. The list shows a part of the results. Active and inactive are the calls of the source.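 The calls were made as follows: active = z-score in the third read window above 3 or below -3; inactive = the rest.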

The experiment deals with Metabotropic glutamate receptor 8 (Rattus norvegicus) (UniProt P70579). The experiment can be described thus: rat mGluR8 modulators via GIRK flux, primary screen, cell-based, thallium flux, HTS (AID 488969). The conditions noted are these: HEK293 rat mGluR8, GIRK (G protein-gated inwardly rectifying potassium channel) thallium flux, FluoZin2; at 10 µM; stronger effect = higher value; submaximal glutamate (EC20) added with thallium.
UniProt P70579, sequence (P70579 whole entry, looked up): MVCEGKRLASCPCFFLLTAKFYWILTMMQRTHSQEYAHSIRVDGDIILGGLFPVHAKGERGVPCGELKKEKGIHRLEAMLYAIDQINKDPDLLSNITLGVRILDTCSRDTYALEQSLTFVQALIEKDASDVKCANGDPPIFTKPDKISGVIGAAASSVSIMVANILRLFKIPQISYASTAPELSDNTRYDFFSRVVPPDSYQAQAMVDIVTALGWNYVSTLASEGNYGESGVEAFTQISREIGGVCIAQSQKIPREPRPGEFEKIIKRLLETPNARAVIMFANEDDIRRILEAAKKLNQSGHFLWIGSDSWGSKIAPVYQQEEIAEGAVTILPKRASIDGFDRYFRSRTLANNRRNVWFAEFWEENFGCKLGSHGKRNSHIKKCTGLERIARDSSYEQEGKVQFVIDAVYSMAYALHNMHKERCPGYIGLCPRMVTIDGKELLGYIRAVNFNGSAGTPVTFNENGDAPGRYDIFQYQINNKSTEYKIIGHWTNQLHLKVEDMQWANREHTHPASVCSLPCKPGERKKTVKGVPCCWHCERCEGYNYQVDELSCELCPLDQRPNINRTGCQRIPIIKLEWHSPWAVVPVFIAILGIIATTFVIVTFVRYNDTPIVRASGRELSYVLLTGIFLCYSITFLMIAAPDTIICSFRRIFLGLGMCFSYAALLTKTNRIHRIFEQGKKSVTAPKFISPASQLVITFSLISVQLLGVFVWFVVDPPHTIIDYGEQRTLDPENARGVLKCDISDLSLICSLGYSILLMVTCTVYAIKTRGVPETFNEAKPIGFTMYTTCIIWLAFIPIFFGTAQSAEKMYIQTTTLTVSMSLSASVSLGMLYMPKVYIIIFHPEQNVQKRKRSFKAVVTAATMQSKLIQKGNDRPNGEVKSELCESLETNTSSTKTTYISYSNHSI
Regarding `COc1ccc(CC(=O)NCc2ccco2)cc1OC`, the z-score is -0.0499.
For `O=C(CCC(=O)N/N=C/c1ccc(Br)s1)NCc1ccccc1`, the z-score was -0.0306.
`Cc1ccc(N(CC(=O)Nc2cc(C)cc(C)c2)S(=O)(=O)c2cccc3nonc23)cc1` returned a z-score of -0.19.
`COC(=O)c1c(NS(=O)(=O)c2ccc(C)cc2)sc2c1CCC(C)C2` (stereo unspecified): the z-score was active: 7.28.
The result for `Nc1c(C(=O)NCc2ccc3c(c2)OCO3)nnn1-c1ccc(OC(F)(F)F)cc1` reads -0.241; that for `Cc1ccc(C)c(S(=O)(=O)NCc2ccc(C(=O)N3CCC(Cc4ccccc4)CC3)cc2)c1`, -0.171.
Under `Cc1cccc(C(=O)NC2CCN(C(=O)N3CCOCC3)CC2)c1` stands 0.0214.
Compound `CC(=O)NNc1nc2ccccc2s1` yielded a z-score of 0.441.
Under `N#C/C(=C\c1cn(-c2ccccc2)nc1-c1cccnc1)c1nnc2n1CCCCC2` stands 0.0661; under `CCOC(=O)N1CCN(C(=O)c2ccc(Cl)c(S(=O)(=O)Nc3ccccc3)c2)CC1`, -0.348; under `CCOc1ccc(/C=C\C(C)=N\O)cc1`, -0.142.
The result for `COC(=O)CCc1c(C)[nH]c(C(=O)OCc2ccccc2)c1C` reads -1.62; that for `Nc1cccnc1Sc1cc(Cl)c(Cl)cc1Cl`, -0.499.
The result for `O=C(CCn1nc(-c2ccc(Cl)cc2)c2ccccc2c1=O)NCC1CCCO1` (stereo unspecified) reads -0.0681.
`O=C1CSC(c2ccco2)N1` (stereo unspecified): the z-score is 0.051.
On to `N#CCCN(CCC#N)c1nnc(-c2ccccc2)s1`, for which the z-score was -0.146.
`Cc1ccc2[nH]c(=O)c(CNC(C)(C)C)cc2c1`: the z-score is -0.199.
Under `CCOC(=O)CNS(=O)(=O)CCN1C(=O)c2ccccc2C1=O` stands -0.0472; under `CCCc1cn(S(=O)(=O)c2ccc(OC)cc2OC)nc1N`, -0.264.
Under `CS(=O)(=O)n1nc(OC(=O)c2cccc3ccccc23)cc1N` stands -0.66; under `COCCN1CCN(c2c3c(nc4cc(-c5cccc(F)c5)nn24)CCC3)CC1`, -1.72; under `CCc1ccccc1NC(=O)C1C(c2ccccc2)C1(Cl)Cl` (stereo unspecified), -0.843.
Compound `O=C1CC(SCCc2nc3ccccc3[nH]2)C(=O)N1c1ccc(F)c(Cl)c1` (stereo unspecified) yielded a z-score of -0.231.
Consider `O=c1[nH][nH]cc1C=Nc1ccccc1O`, for which the z-score was found to be 0.415.
The compound `Cc1nn(-c2ccccc2)c2[nH]c(=O)c(CNCc3ccc4c(c3)OCO4)cc12` showed a z-score of -0.638.
Under `CCOC(=O)C(C)S(=O)(=O)c1ccc(C(F)(F)F)cn1` (stereo unspecified) stands -0.308.
The compound `C#CCn1c(S(=O)(=O)Cc2ccc(F)cc2)nc(-c2ccccc2)c1-c1ccccc1` had a z-score of -0.295.
Compound `O=C(CN1CCN(Cc2ccccc2)CC1)N/N=C/c1c[nH]c2ccccc12` returned a z-score of 1.1.
With `O=S(=O)(Cc1ccc(Cl)cc1)N1CCN(Cc2ccccc2)CC1`, the z-score was 0.156.
The compound `CCOC(=O)C(C(=O)Nc1nc2ccccc2s1)C1CCCCC1` (stereo unspecified) came in with a z-score of -0.116.
The result for `CCOc1ccccc1OCCOc1ccccc1CC` reads -0.233.
Under `COc1ccc(/C=C2\CCCC3C2=NN(C(=O)c2ccco2)C3c2ccc(OC)c(OC)c2)cc1OC` (stereo unspecified) stands -0.333; under `COc1ccc(NC(=O)CCC(=O)c2cccs2)cc1S(=O)(=O)Nc1ccc(Cl)cc1`, -0.118.
`Cc1ccc(CN2CCN(/N=C/c3cc(Br)ccc3O)CC2)cc1` displayed a z-score of -0.494.
`Nc1ccc2ncccc2c1` had a z-score of 0.605.
Under `O=C(NCc1cccc(Cl)c1)c1cnccn1` stands 0.429.
Under `Cc1cccc(N=Cc2[nH]c3ccc(Br)c(Cl)c3c2O)c1` stands -0.294.
`O=C(CSc1nc2c(sc3ccccc32)c(=O)n1CCO)NCC1CCCO1` (stereo unspecified) came in with a z-score of 0.0816.
In turn, `O=C(c1ccc(-n2c(SCc3cccc(F)c3)nc3ccccc3c2=O)cc1)N1CCOCC1` returned a z-score of -0.182.
`c1ccc(CCCc2nc(-c3ccccn3)no2)cc1` had a z-score of -0.005.
Under `NC(=O)c1ccccc1N=Cc1ccc2ccccc2c1` stands -1.08.
For the compound `Cc1cc2ncn(C(=O)c3c(-c4c(Cl)cccc4Cl)noc3C)c2cc1C`, the z-score stood at 0.106.
As to `O=C(c1ccc(S(=O)(=O)c2ccccc2Cl)c([N+](=O)[O-])c1)N1CCN(Cc2ccccc2)CC1`, the z-score was -0.971.
Under `C=CCN(C(=O)Cn1ncc2c1-c1cc(C)ccc1OC2)c1ccccc1` stands -0.764; under `Cn1c(SCc2nc(-c3ccc(Cl)cc3)no2)nnc1-c1cccs1`, -0.0713; under `Cc1cc(C)nc(NS(=O)(=O)c2ccc(-n3cccc3)cc2)n1`, 0.281.
Under `CCCC(=Nc1ccc(N)cc1)C1=C(O)C(C(=O)OC)C(C)(C)CC1=O` (stereo unspecified) stands -0.174.
Under `O=C(COC(=O)Cn1cnc2ccccc21)Nc1ccc2c(c1)C(=O)c1ccccc1C2=O` stands -0.238; under `CCOC(=O)N1CCC(NC(=O)Cn2cc3c(n2)CCC(C)C3)CC1` (stereo unspecified), -0.065.
`O=S(=O)(c1cc(Cl)ccc1Br)N1CCCCC1`: the z-score is -0.084.
The result for `Cc1c(NC(=O)Nc2ccc3c(c2)OCO3)c(=O)n(-c2ccccc2)n1C` reads -0.208; that for `COc1cc(C(=O)NCC2CCCO2)cc(OC)c1OC` (stereo unspecified), 0.0135.
The result for `Cc1ccc(NCc2nnc(SCC#N)o2)c(C)c1` reads 1.28.
In turn, `COC(=O)c1ccccc1S(=O)(=O)N(CCCO)Cc1cc2c(C)ccc(C)c2[nH]c1=O` returned a z-score of -0.268.
Under `O=C(O)C1CSC2c3ccccc3C(=O)N12` (stereo unspecified) stands 1.36.
The result for `COc1cc2c(cc1OC)C1C/C(=N\O)C(CC(C)C)CN1CC2` (stereo unspecified) reads 0.804; that for `COc1cc2cc(C#N)c(SCC(=O)N3CCOCC3)nc2cc1OC`, 0.593.
The result for `COc1cccc(NC(=O)CN(Cc2ccccc2)S(C)(=O)=O)c1` reads -0.122; that for `COC(=O)COc1ccc(S(=O)(=O)Nc2ccc(C(N)=O)cc2)cc1Cl`, 0.0621; that for `O=C(O)CCc1ccc(-c2ccc(F)cc2)n1CCC(=O)O`, 0.291.
`COc1cccc(C2=NOC(C(=O)NCCCn3ccnc3)C2)c1` (stereo unspecified) yielded a z-score of -0.152.
The result for `C(=C\c1nc(N2CCCCCC2)c2ccccc2n1)/c1ccccc1` reads -0.104.
`COc1ccc(C2NCCO2)cc1OC` (stereo unspecified) yielded a z-score of -0.584.
In turn, `O=S(=O)(Cc1ccc(Cl)cc1)Nc1ccc2c(c1)OCO2` returned a z-score of -0.254.
Under `CCSc1nnc(NC(=O)CSc2nc3c(c(=O)n2-c2ccccc2OC)SCC3)s1` stands -2.55; under `CC(C)(C)C(=O)Nc1nnc(SCC(=O)NCc2ccco2)s1`, 0.00513; under `COC(=O)C(NC(C)=O)(Nc1sc2c(c1C(N)=O)CCCC2)C(F)(F)F` (stereo unspecified), -0.0578.
Under `C#CCOC(=O)/C(=C/C=C/c1ccccc1)NC(=O)c1ccccc1` stands -0.264.
In turn, `COc1ccc(S(=O)(=O)Nc2ccccc2)cc1OC` gave a z-score of 0.597.
The result for `CCOc1ccc(-c2[nH]ncc2Oc2cccc(OC)c2)c(O)c1` reads 0.37; that for `CCOC(=O)CSC1=C(C#N)C(c2ccccc2OC)CC(=O)N1` (stereo unspecified), 1.8; that for `CC(=NCC1CCCO1)c1c(O)[nH]c(=O)[nH]c1=O` (stereo unspecified), -0.392.
The result for `COc1ccc(/C=N\NC(=O)c2cc(O)c(O)c(O)c2)cc1CN1CCN(c2ccc(F)cc2)CC1` reads -0.347; that for `COCCN(CCOC)S(=O)(=O)c1ccc(C(=O)Nc2nnc(C3CC3)o2)cc1`, -0.378; that for `Cc1noc(/C=C/N(C)C)c1S(=O)(=O)N1CCCC(C(=O)Nc2ccc3c(c2)OCO3)C1` (stereo unspecified), -0.298.
The result for `CC(c1ccc(Cl)cc1)n1c(-c2ccc3ccccc3n2)n[nH]c1=S` (stereo unspecified) reads active: 7.23; that for `COc1ccc(NC(=O)N2CCC(c3nc(-c4cccs4)no3)CC2)cc1`, -0.229.
Regarding `CCOc1ccccc1OCCOCCOc1c(Cl)cccc1Cl`, the z-score is -0.061.
The compound `Cc1ccc(S(=O)(=O)Nc2ccc(N=Nc3ccc(O)cc3)cc2)cc1` showed a z-score of 0.492.
Under `O=C(Nc1cccc(S(=O)(=O)N2CCCCC2)c1)Nc1ccc(Cl)cc1Cl` stands -0.0698; under `O=C(CC(=O)Nc1cccc(Cl)c1)N/N=C\c1ccccc1`, -0.327; under `Cc1cc(NCCNC2=CC(=O)CCC2)nc2ccccc12`, -0.308.
`Cc1ccc(C(=O)NNc2cc(N3CCCC3)nc(N3CCCC3)n2)cc1` returned a z-score of -0.127.
Under `O=C(/C=C/c1ccccc1)N/C(=C/c1ccccc1)C(=O)N1CCOCC1` stands 0.604.
The result for `Cc1ccc(NC(=S)N2CCN(c3ncccn3)CC2)c(C)c1` reads -0.247; that for `CCOC(=O)CC(=O)CSc1nc2ccccc2c(=O)n1-c1ccc(C(=O)N2CCOCC2)cc1`, -0.0436; that for `CC1CN(C(=O)c2cc3cc(Cl)cc(Cl)c3oc2=O)CC(C)O1` (stereo unspecified), -0.241.
Under `COc1ccc(-c2nc3ncccn3c2Nc2ccc3c(c2)OCCO3)cc1` stands 0.678; under `CCCC(=O)Nc1nc2ccc(S(N)(=O)=O)cc2s1`, -0.295.
Compound `CCOC(=O)c1ccc(NC(=O)C2CCN(S(=O)(=O)CC)CC2)cc1` returned a z-score of -0.119.
The result for `O=C(NCCc1ccccc1)C(=O)N/N=C/c1ccc2c(c1)OCO2` reads -0.266.
Under `C/C(N)=C(/C#N)C(=O)COc1ncnc2ccc(Br)cc12` stands -0.153; under `CCC(C)Nc1ncnc2c1cnn2Cc1ccc(Cl)cc1` (stereo unspecified), -0.932; under `Cc1nn(C)c(C)c1-c1c(C#N)c(N)nc2c1CCCCCC2`, 0.0105.
With `CNC(=S)N/N=C/c1ccc(OCC(=O)Nc2c(C)cc(C)cc2C)c(OC)c1`, the z-score is -0.178.
The result for `COCCn1c(=O)[nH]c2cc(C(=O)NCCCN3CCN(c4ccc(F)cc4)CC3)ccc2c1=O` reads -0.00724; that for `COc1cccc(OC)c1Oc1ccc(C(F)(F)F)cn1`, 0.214; that for `COC(=O)c1sc(NC(=O)CC(C)C)c(C(=O)OC)c1C`, -0.184.
For the compound `CSc1nc2c(c(=O)[nH]1)CCCC2`, the z-score is -0.193.
`Cc1ccc(C(=O)Oc2ccccc2N2C(=O)C3C4CCC(C4)C3C2=O)cc1` (stereo unspecified) registered a z-score of -0.333.
The result for `COc1ccc(C2N=C(c3ccccc3)C(C)(C)N2O)cc1` (stereo unspecified) reads 0.252.
The result for `Cc1ccc(-n2c(O)c(C=Nc3ccc4c(c3)OCO4)c3ccccc3c2=O)cc1C` reads 0.194; that for `O=C(Cc1cccc2ccccc12)N/N=C/C=C/c1cccc([N+](=O)[O-])c1`, -0.527.
In the case of `COc1ccccc1NC(=O)N1CCc2[nH]c3ccc(Cl)cc3c2C1`, the z-score is -0.0668.
The result for `CC12CCC(C(=O)NCc3ccc(Cl)cc3)(OC1=O)C2(C)C` (stereo unspecified) reads -0.0643; that for `O=S(=O)(c1ccc(-c2cn3ccccc3n2)cc1)N1CCOCC1`, -0.0851; that for `CCOC(=O)c1ccc(NC(=O)N2CCN(C3CCCCC3)CC2)cc1`, -0.163.
Regarding `COC(=O)CN(c1ccc(OC)c(OC)c1)S(C)(=O)=O`, the z-score worked out at 0.165.
With `CCOC(=O)c1[nH]c2ccc(C)cc2c1NC(=O)CN1CCCCC1`, the z-score is -1.17.
The result for `Cn1c(NCc2cc(Br)ccc2O)nc2ccccc21` reads -0.597; that for `Nc1nnc(SCC(=O)Nc2ccc(F)c(Cl)c2)n1-c1ccccc1`, -0.565.
